# Measured values: PubChem BioAssay AID686979 (National Center for Advancing Translational Sciences (NCATS), 2013)
# The whole screen tested about 420,000 compounds, of which about 50,000 (12%) were called active. The shares of active, inactive and inconclusive entries below differ from those in the screen. Calls come from the whole dose curve; as a rule, active = well fitted inhibition curve with a large enough effect; inconclusive = small, poorly fitted or top-dose-only effect; inactive = flat fitted curve, though single readings scatter. Potencies of inconclusive entries are left out as doubtful fits.
# Test: qHTS for Inhibitors of human tyrosyl-DNA phosphodiesterase 1 (TDP1): qHTS in cells in presence of CPT; note: nearly all actives have a fitted effect of over 55% in size
# Details: chicken DT40 Tdp1-/-;hTDP1 cells + 20 nM CPT, ATP luminescence, 48 h; activity change, negative = growth inhibition: at 46.2 µM (top of the series)
# Outline: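 Cell growth measured by CellTiter-Glo luminescence after a minimum 48 h, 37 C compound exposure with 20 nM CPT in Tdp1-knockout DT40 cells stably expressing hTDP1, seeded 400/well; qHTS titration format.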
# % is set by controls: 0 for no effect and ±100 for the full control effect; potency is the fitted concentration of half-maximal effect; tags give direction and shape of the fitted curve.
Compound,"activity change, negative = growth inhibition",Potency
COc1cccc(S(=O)(=O)N(C)C[C@@H]2Oc3cc(C#CCN(C)C)ccc3S(=O)(=O)N([C@H](C)CO)C[C@@H]2C)c1,inactive: -18.2%,
COc1ccccc1N=Cc1c(O)c2ccccc2oc1=O,,"inconclusive [inhibitor, single point]"
COc1cc(NC(=O)C2(C)CCN2C(C)C)cc(OC)c1OC (stereo not drawn),inactive: -0.698%,
COc1ccccc1NC(=S)Nc1cccc2cnccc12,,active: 25.9 µM
Cc1cc(NC(=O)COC(=O)COc2ccc(Cl)c(C)c2)no1,inactive: -13.2%,
Cc1ccc(S(=O)(=O)Nc2ccccc2C(=O)N2CCN(C)CC2)cc1,inactive: 3.8%,
COc1ccc(CC(N)c2csc(NC(=O)Nc3cccc(C(F)(F)F)c3)n2)cc1 (stereo not drawn),,"inconclusive [inhibitor, single point]"
O=C(COc1ccccc1[N+](=O)[O-])N/N=C/C=C/c1ccco1,inactive: -25.5%,
COc1ccc(CNC(=O)c2ccc3c(=O)n4c(nc3c2)CCCCC4)cc1OC,,"inconclusive [inhibitor, single point]"
O=C(Nc1cccc2ccccc12)NC(Cc1ccccc1)C(=O)O (stereo not drawn),inactive: 6.61%,
COc1ccc(-c2nc3cnc(N(C)C)nc3n(C[C@H]3CCCO3)c2=O)cc1,inactive: 2.6%,
O=C(O)CCCCCN1C(=O)/C(=C\c2ccc(-c3ccc(Cl)cc3)o2)SC1=S,,"inconclusive [inhibitor, single point]"
CCCCCNC(=O)C(c1ccc(OC)cc1)n1c(=O)c(-c2ccccc2)nc2ccccc21 (stereo not drawn),,active: 23.1 µM
Cn1c(=O)[nH]c(=O)c2c1nc(SCC(=O)Nc1ccccc1)n2Cc1ccccc1,,active: 23.1 µM
CCOC(=O)c1ccc(NC(=O)CCS(=O)(=O)c2ccc(Br)s2)cc1,,"inconclusive [inhibitor, single point]"
CCOC(=O)N1CCN(C(=O)c2cnc(Nc3ccccc3OC)c3ccccc23)CC1,,"inconclusive [inhibitor, partial curve]"
CCNc1nc2c(c(=O)n(Cc3ccccc3)c(=O)n2C)n1Cc1ccccc1,,"inconclusive [inhibitor, single point]"
Cc1cccc(NC(=O)CN2CCN(C(=O)C(C)Oc3ccc(C#N)cc3)CC2)c1C (stereo not drawn),inactive: -28.5%,
C=CCC1(CC=C)CCCN1C(=O)c1cc(COc2ccccc2SC)on1,,"inconclusive [inhibitor, single point]"
COc1cccc(OCCSc2nc(N)cc(N)n2)c1,,"inconclusive [inhibitor, single point]"
O=C(Cn1ncc2c3ccccc3n(Cc3ccccc3F)c2c1=O)N1CCN(c2ccccn2)CC1,,"inconclusive [inhibitor, single point]"
O=C(CN1CCN(c2ccc(F)cc2)CC1)NCc1cccs1,inactive: -6.58%,
CCOC(=O)N1CCN(C(=O)COc2cccc3c2CCN(Cc2ccc(F)cc2)C3=O)CC1,,"inconclusive [inhibitor, single point]"
CCCCOC(=O)/C=C\C(=O)NC(N)=O,,"inconclusive [inhibitor, partial curve, poor fit]"

Compound,"activity change, negative = growth inhibition",Potency
CC(=O)Nc1cccc(-c2ccnc3c2CC(C)(C(=O)NCc2ccccc2)O3)c1 (stereo not drawn),,active: 0.82 µM
CCCn1nc(NC(=O)c2cccs2)c2cc3ccc(C)cc3nc21,,"inconclusive [inhibitor, single point]"
CCCN1CCN(c2ncnc3sc(C(=O)Nc4c(C)cc(C)cc4C)c(C)c23)CC1,,active: 16.4 µM
O=C(NC1CCCCC1)c1ccccc1-c1ccccc1,inactive: 7.4%,
COc1ccc2nc(/N=C/c3c(C)[nH]n(-c4ccc(C)cc4)c3=O)sc2c1,,active: 13 µM
Cc1ccc(C2C=C(c3ccccc3OC(F)F)Nc3ncnn32)cc1 (stereo not drawn),,"inconclusive [inhibitor, single point]"
CCCCCc1nc2c(c3c1CCCC3)CCCC2,,"inconclusive [inhibitor, single point]"
O=C(Nc1cccc(Cl)c1)NC1CC2CCC(C1)N2Cc1cccs1 (stereo not drawn),,active: 20.6 µM
COc1ccc(S(=O)(=O)Nc2cccc(-c3ccc4nncn4n3)c2)cc1,,active: 3.66 µM
CCOC(=O)CNS(=O)(=O)c1cc(-c2nn(C)c(=O)c3ccccc23)ccc1C,,"inconclusive [inhibitor, single point]"
CCOC(=O)C(=O)Nc1nccs1,inactive: -4.42%,
CCCCNC(=O)C1(C)CCN1C(=O)c1cccnc1Oc1ccccc1 (stereo not drawn),inactive: -0.14%,
Cc1cccc(NS(=O)(=O)c2ccc(C(=O)N3CC(C)OC(C)C3)cc2)c1C (stereo not drawn),,"inconclusive [inhibitor, single point]"
CN1CCN(c2ccc(CNS(=O)(=O)c3ccc(Cl)cc3)cc2)CC1,,"inconclusive [inhibitor, partial curve]"
CCc1ccc2nc(Nc3ncc(C(C)=O)c(C)n3)nc(C)c2c1,,"inconclusive [inhibitor, single point]"
CN1CCN(C(=O)c2cnn3c(C(F)(F)F)cc(-c4cccs4)nc23)CC1,inactive: 5.63%,
CCOc1ccc(N=C2C(=O)Nc3ccc(C)c(Br)c32)cc1,inconclusive: -33.3% [inhibitor],
N#Cc1ccsc1NC(=O)CSc1ncnc2ccccc12,,"inconclusive [inhibitor, single point]"
CCn1ccnc1CN(C)Cc1cn(-c2ccc(C)cc2)nc1-c1cccc(C)c1,,"inconclusive [inhibitor, single point]"
Clc1ccc(CN2C3=NCCCN3c3ccccc32)cc1Cl,inactive: -120%,
O=C(Cc1c(Sc2ccccc2)c2ccccc2n1Cc1ccccc1)NCCO,,"inconclusive [inhibitor, single point]"
O=C(Nc1cccc(CNCCc2c[nH]c3ccccc23)c1)c1ccccc1Cl,,"inconclusive [inhibitor, single point]"
CCCCn1c(N)c(N(CCC(C)C)C(=O)C2CC(=O)N(c3ccc4c(c3)OCCO4)C2)c(=O)[nH]c1=O (stereo not drawn),inactive: 0.482%,
NC(=O)C1(N2CCCCC2)CCN(C(=O)Nc2ccc(F)cc2F)CC1,inactive: 4.78%,
